Data taken from PubChem BioAssay AID485364 (National Center for Advancing Translational Sciences (NCATS), 2010).
Screen size: about 360,000 compounds; about 11,000 (3.1%) were called active. The inconclusive results got no clear call from the source; some entries with a clear call stand among them for comparison. Calls come from the whole dose curve; as a rule, active = well fitted inhibition curve with a large enough effect; inconclusive = small, poorly fitted or top-dose-only effect; inactive = no such curve, though single readings can be large or run the other way. Potencies of inconclusive entries are left out as doubtful fits.

Biological target: Schistosoma mansoni thioredoxin glutathione reductase (TGR) (UniProt Q962Y6)
Test: qHTS Assay for the Inhibitors of Schistosoma Mansoni Peroxiredoxins; note: nearly all actives have a fitted effect of over 60% in size
Settings: purified TGR, DTNB reduction, TNB absorbance 405 nm; activity change, negative = inhibition: at 114 µM (top of the series) unless noted
In short: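 TGR 20 nM + NADPH 100 uM (dispensed conc.), cpd preinc 15 min RT; start with NADPH (500 uM addition) then DTNB (15 mM addition). Kinetic TNB absorbance, 405 nm filter. Four-parameter Hill fit across titration.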
% is set by controls: 0 for no effect and ±100 for the full control effect; potency is the fitted concentration of half-maximal effect; tags give direction and shape of the fitted curve.

| SMILES | Potency | activity change, negative = inhibition |
| --- | --- | --- |
| CC(=O)c1c(N2CCN(CCO)CC2)nc(=S)n(-c2ccccc2)c1C | inconclusive [inhibitor, full curve, poor fit] |  |
| CCOC(=O)C1CCN(C(c2cc3ccc(C)c(C)c3[nH]c2=O)c2nnnn2C2CCCCC2)CC1 (stereo not drawn) | inconclusive [inhibitor, partial curve] |  |
| COC(=O)c1cc(OC)c(OC)cc1NC(=O)CN1CCCCC1 |  | inactive: -1.7% |
| COC(=O)c1cccc(Nc2c(-c3ccc(O)cc3)nc3nc[nH]n23)c1 | inconclusive [inhibitor, partial curve] |  |
| Cc1ccc2c(CC(=O)O)coc2c1C | inconclusive [inhibitor, full curve, poor fit] |  |
| COCCCNC(=O)c1ccc(CSCc2ccc(C)cc2)o1 | active: 39.8 µM |  |
| Cc1ccc(C(=O)N/N=C/c2cccc(OC(=O)/C=C/c3ccco3)c2)cn1 | inconclusive [inhibitor, partial curve] |  |
| COc1ccc2[nH]c3c(=O)n(/N=C/c4ccc(OC)c(CN5CCCC5)c4)c(C)nc3c2c1 | inconclusive [inhibitor, partial curve] |  |
| Cc1ccc(N2C(=O)CC(NCc3ccc4c(c3)OCO4)C2=O)cc1Cl (stereo not drawn) | inconclusive [inhibitor, partial curve] |  |
| Cc1nc([N+](=O)[O-])c(Sc2nc3ccc([N+](=O)[O-])cc3[nH]2)n1Cc1ccccc1 | active: 14.1 µM |  |
| CNC(=S)NC1CC2CCCC(C1)N2Cc1ccccc1OC (stereo not drawn) | inconclusive [inhibitor, full curve, poor fit] |  |
| CCOC(=O)/C=C1\CN(Cc2cc(OC)c(OC)c(OC)c2)S(=O)(=O)c2ccccc21 | inconclusive [inhibitor, partial curve, poor fit] |  |
| COc1ccc(-n2c(Cc3cccn3C)nnc2SCC(=O)Nc2cccc(C)c2C)cc1 | inconclusive [inhibitor, partial curve] |  |
| COc1cccc(C(=O)C(C#N)=C(SC)SC)c1 | active: 12.6 µM |  |
| CCc1nnc(NS(=O)(=O)c2ccc(NCc3cc(Br)ccc3O)cc2)s1 |  | inactive: -6.48% |
| CC(=O)Nc1nc2n(n1)C(c1ccc(Cl)cc1)C=C(C)N2 (stereo not drawn) | active: 14.1 µM |  |
| O=C(CC1C(=O)NCCN1CC1CCCCC1)NCc1ccc(Cl)cc1 (stereo not drawn) | inconclusive [inhibitor, partial curve] |  |
| COc1cccc(C(=O)NCC(c2ccc(N(C)C)cc2)N2CCc3ccccc32)c1OC (stereo not drawn) |  | inactive: 42.1% |
| O=c1cc(CN2CCOCC2)c2cc(Cl)ccc2o1 |  | inactive: 1.25% |
| COc1ccc(NC(=O)/C(Cl)=C(/Cl)S(=O)Cc2ccccc2Cl)cn1 (stereo not drawn) | active: 0.0891 µM |  |
| Cc1ccc(-c2cc(C(=O)NN3CCOCC3)c3cc(Br)ccc3n2)o1 | active: 10 µM |  |
| C=CCNC(=S)Nc1cc(S(=O)(=O)N2CCOCC2)ccc1-n1cncn1 | inconclusive [inhibitor, partial curve, poor fit] |  |
| Cc1ccccc1Nc1cc(C(=O)NC2CCC(C)CC2)c2ccccc2n1 (stereo not drawn) |  | inactive: 11.3% |
| O=C1C(C=NCc2ccco2)=C(O)c2ccccc21 | inconclusive [inhibitor, partial curve] |  |
| COc1cc(OC)cc(C(=O)NCCCCCCNC(=O)c2cc(OC)cc(OC)c2)c1 |  | inactive: 1.05% |

| SMILES | Potency | activity change, negative = inhibition |
| --- | --- | --- |
| Cn1c(Br)nc2c1c(=O)n(CC(O)COc1ccccc1)c(=O)n2C (stereo not drawn) | active: 50.1 µM |  |
| CC(C)CC(=O)NC(=S)Nc1ccc(N2CCN(C(=O)c3cccs3)CC2)cc1 | inconclusive [inhibitor, full curve] |  |
| CCOC(=O)N1CCN(C(=O)c2ccc(S(=O)(=O)NCc3ccco3)cc2)CC1 | inconclusive [inhibitor, partial curve] |  |
| O=[N+]([O-])c1ccc(Nc2ccccc2O)c2nonc12 | inconclusive [inhibitor, partial curve] |  |
| O=C1c2ccccc2C(=O)N1OS(=O)(=O)c1ccc(F)cc1 | active: 0.708 µM |  |
| CCN(CC(=O)Nc1ccc(OC)c(OC)c1)CC(=O)Nc1ccccc1C(F)(F)F | inconclusive [inhibitor, partial curve] |  |
| CC(C)NC(=O)c1ccc(CS(=O)(=O)c2ccc(Br)cc2)o1 | inconclusive [inhibitor, partial curve] |  |
| COc1ccc(OCCCC(=O)Nc2ccc(S(=O)(=O)N3CCOCC3)cc2)cc1 |  | inactive: -19.6% |
| CC1(C)Cc2c(C#N)c(N3CCCC3)nc(-c3ccco3)c2CO1 | active: 3.55 µM |  |
| CC(C#CCN1CCCCC1)OCCOCc1ccccc1 (stereo not drawn) | inconclusive [inhibitor, partial curve] |  |
| CN(c1ccccc1)S(=O)(=O)c1ccc(NC(=S)Nc2ccccc2)cc1 | inconclusive [inhibitor, partial curve] |  |
| CC(=O)Nc1ccc(OC(=O)c2cccnc2)cc1 |  | inactive: 1.08% |
| COc1ccc(S(=O)(=O)N2CCCCCC2)cc1NC(=O)CN1C(=O)NC(C)(c2ccc(C)cc2)C1=O (stereo not drawn) | inconclusive [inhibitor, partial curve] |  |
| COC(=O)c1cnn(-c2ccccc2)c1-n1cccc1C=O |  | inactive: 0.191% |
| COCCCNC(=S)N1CCC(NC(=O)Nc2ccc(C)cc2)CC1 |  | inactive: 5.26% [at 57.1 µM] |
| Nc1ccc(C#Cc2ccc3c(=O)c4ccccc4oc3c2)cc1 | inconclusive [inhibitor, partial curve, poor fit] |  |
| CCCc1cc(=O)oc2cc(C)cc(OCC(=O)NCc3ccncc3)c12 |  | inactive: -6.1% |
| CC(=O)Nc1ccc2nc3ccccc3nc2c1 | inconclusive [inhibitor, partial curve] |  |
| CCOc1ccc(C(=O)NCCCCNC(=O)c2ccc(OCC)cc2)cc1 |  | inactive: -14.6% |
| CC(=O)c1cccc(NC(=S)NC(=O)c2ccc(Cl)cc2)c1 |  | inactive: -20.1% |
| Cc1ccc(S(=O)(=O)Nc2cc(Cl)c3oc4c(c3c2)C(=O)CC(C)(C)C4)cc1 | inconclusive [inhibitor, partial curve] |  |
| COc1ccccc1CNc1nc(-c2ccco2)nn1S(=O)(=O)c1ccc(Cl)cc1 | inconclusive [inhibitor, partial curve] |  |
| COc1ccc([C@H]2C=C(C(=O)O)O[C@@H](OCc3ccc(CO)cc3)C2)cc1 | inconclusive [inhibitor, partial curve] |  |
| COC(=O)C1(C)NC(c2ccc(O)cc2)C2C(=O)N(c3ccc(C)cc3)C(=O)C21 (stereo not drawn) | inconclusive [inhibitor, single point] |  |
| S=c1nc(-c2ccccc2)n(CCCN2CCOCC2)c2c1CCCC2 | inconclusive [inhibitor, partial curve] |  |

| SMILES | Potency | activity change, negative = inhibition |
| --- | --- | --- |
| O=[N+]([O-])c1ccc(O)c2ncccc12 | inconclusive [inhibitor, full curve, poor fit] |  |
| COc1ccc(OC)c(CCNC(=O)Cn2sc3nc(C)cc(C)c3c2=O)c1 | inconclusive [inhibitor, partial curve] |  |
| NS(=O)(=O)c1ccc(NC(=S)NC(=O)C2CCCC2)cc1 | inconclusive [inhibitor, partial curve] |  |
| CC(C)(C)C#CC(CCc1ccccc1)OS(N)(=O)=O (stereo not drawn) | active: 28.2 µM |  |
| CC1COc2ccccc2N1S(=O)(=O)c1ccccc1 (stereo not drawn) | inconclusive [inhibitor, single point] |  |
| CCCc1[nH]nc2c1C(c1cc(OC)cc(OC)c1)C(C#N)=C(N)O2 (stereo not drawn) | active: 25.1 µM |  |
| Cc1cc(=O)n2nc(N3CCCC(C(=O)NCc4ccco4)C3)sc2n1 (stereo not drawn) | inconclusive [inhibitor, partial curve] |  |
| CCOC(=O)c1c(/N=C/c2ccc(OC)cc2O)sc2c1CCN(C)C2 | inconclusive [inhibitor, partial curve] |  |
| Cc1cc(C)nc(S/C=C/C(=O)c2ccccc2)n1 | active: 1.12 µM |  |
| CCCSC1C(C)=C(C)C(=O)N1Cc1ccccc1 (stereo not drawn) | inconclusive [inhibitor, partial curve] |  |
| O=C(/C=C/c1ccc(Cl)cc1)NC(=S)Nc1ccccc1C(=O)O | inconclusive [inhibitor, partial curve] |  |
| Cc1ccc(-n2c(SCC(=O)NCc3ccco3)nnc2-c2cccnc2)cc1 | active: 44.7 µM |  |
| COc1ccc(CNC(=O)C2CCNCC2)cc1 | active: 44.7 µM |  |
| Cc1cccn2c(=O)c3cc(C(=O)NC4CCCCCC4)sc3nc12 | active: 35.5 µM |  |
| C#CC[N+]1(CC#Cc2ccccc2)CCCCC1 | inconclusive [inhibitor, partial curve] |  |
| O=C(CCN1CCOCC1)Nc1ccc(Br)cc1C(=O)c1ccccc1 | active: 25.1 µM |  |
| CCCCOCCCNC(=S)Nc1ccc(S(=O)(=O)N2CCOCC2)cc1 | inconclusive [inhibitor, partial curve] |  |
| COc1ccc(OC)c(NC(=O)c2ccc(-c3csc(C)n3)cc2)c1 |  | inactive: -13.8% |
| CSc1nc(N)n2nc(-c3ccc(Cl)cc3)cc2n1 |  | inactive: -4.06% |
| COc1ccc(CNC(=O)[C@H](Cc2ccccc2)NC(=O)C2CCNCC2)cc1 | active: 31.6 µM |  |
| CCCc1ccc2oc(C(=O)NCCN3CCCC(C(N)=O)C3)c(C)c2c1 (stereo not drawn) | inconclusive [inhibitor, partial curve, poor fit] |  |
| O=C(CSc1nc(O)c(C2CCCCC2)c(=O)[nH]1)NCC1CCCO1 (stereo not drawn) |  | inactive: -16.8% |
| COc1ccccc1CN1CCNC(=O)C1CC(=O)NCCC1=CCCCC1 (stereo not drawn) | inconclusive [inhibitor, partial curve] |  |
